From PubChem BioAssay AID330 (DTP/NCI, 2004)
Where “and” joins values, the source holds several entries; their conditions need not be identical. Identical values can stand only once. Further values from the same series stand in other lists. Inconclusive results and toxic doses are left out.

System: P388 leukemia ip, CD2F1 mice, survival T/C
Assay: NCI In Vivo Anticancer Drug Screen. Data for tumor model P388 Leukemia (intraperitoneal) in CD2F1 (CDF1) mice
Conditions: endpoint: median survival time, higher = longer survival
Experimental: The antitumor activity of compounds was measured in mice bearing transplantable tumors. Survival or tumor size were measured and the results are expressed as the measurement made in the treated group (T) divided by the measurement made in the vehicle treated control group (C). The tumor model used in this assay is P388 Leukemia (intraperitoneal) in CD2F1 (CDF1) mice

CO[C@H]1C[C@](C)(O)Cc2cc3c(c(O)c21)C(=O)c1c(O)cc2c(c1C3=O)O[C@@H]1O[C@@]2(C)[C@H](O)[C@@H](N(C)C)[C@@H]1O
T/C (dose: 12.5 mg/kg/injection, schedule: Q01DX001 (sc), vehicle: other): 97 % of control
T/C (dose: 22.5 mg/kg/injection, schedule: Q01DX005 (iv), vehicle: clinical formulation): 98 % of control
T/C (dose: 40.0 mg/kg/injection, schedule: Q01DX005 (ip), vehicle: distilled water + Tween-80): 96 % of control

O=C1NC2(CCCCC2)C(=O)N1CCN(CCCl)CCCl
T/C (dose: 2.5 mg/kg/injection, schedule: Q01DX001 (oral), vehicle: other): 97 % of control
T/C (dose: 3.0 mg/kg/injection, schedule: Q01DX009 (ip), vehicle: Klucel (hydroxypropylcellulose) (HPC)): 188 % of control
T/C (dose: 3.12 mg/kg/injection, schedule: Q01DX009 (ip), vehicle: saline): 164 % of control and 172 % of control
T/C (dose: 3.24 mg/kg/injection, schedule: Q01DX009 (ip), vehicle: Klucel (hydroxypropylcellulose) (HPC)): 198 % of control
T/C (dose: 4.0 mg/kg/injection, schedule: Q01DX009 (ip), vehicle: saline): 206 % of control
T/C (dose: 5.0 mg/kg/injection, schedule: Q01DX009 (ip), vehicle: clinical formulation): 211 % of control and 87 % of control
T/C (dose: 5.0 mg/kg/injection, schedule: Q01DX009 (ip), vehicle: saline with Tween-80): 182 % of control
T/C (dose: 5.0 mg/kg/injection, schedule: Q01DX009 (ip), vehicle: saline): 185 % of control
T/C (dose: 5.4 mg/kg/injection, schedule: Q01DX009 (ip), vehicle: Klucel (hydroxypropylcellulose) (HPC)): 230 % of control
T/C (dose: 6.0 mg/kg/injection, schedule: Q01DX009 (ip), vehicle: saline with Tween-80): 203 % of control
T/C (dose: 6.0 mg/kg/injection, schedule: Q01DX009 (oral), vehicle: other): 96 % of control
T/C (dose: 6.25 mg/kg/injection, schedule: Q01DX009 (ip), vehicle: saline): 205 % of control and 91 % of control
T/C (dose: 9.0 mg/kg/injection, schedule: Q01DX009 (ip), vehicle: saline): 246 % of control
T/C (dose: 10.0 mg/kg/injection, schedule: Q01DX005 (iv), vehicle: clinical formulation): 191 % of control
T/C (dose: 10.0 mg/kg/injection, schedule: Q01DX009 (ip), vehicle: clinical formulation): 259 % of control and 87 % of control
T/C (dose: 10.0 mg/kg/injection, schedule: Q01DX009 (ip), vehicle: other): 185 % of control
T/C (dose: 10.0 mg/kg/injection, schedule: Q01DX009 (ip), vehicle: saline with Tween-80): 88 % of control
T/C (dose: 10.0 mg/kg/injection, schedule: Q01DX009 (ip), vehicle: saline): 220 % of control
T/C (dose: 12.0 mg/kg/injection, schedule: Q01DX005 (ip), vehicle: suspension in saline): 200 % of control
T/C (dose: 12.0 mg/kg/injection, schedule: Q01DX009 (ip), vehicle: Klucel (hydroxypropylcellulose) (HPC)): 91 % of control
T/C (dose: 12.0 mg/kg/injection, schedule: Q01DX009 (ip), vehicle: saline with Tween-80): 240 % of control
T/C (dose: 13.0 mg/kg/injection, schedule: Q01DX009 (ip), vehicle: saline): 269 % of control
T/C (dose: 20.0 mg/kg/injection, schedule: Q01DX005 (ip), vehicle: other): 199 % of control
T/C (dose: 20.0 mg/kg/injection, schedule: Q01DX009 (ip), vehicle: Klucel (hydroxypropylcellulose) (HPC)): 94 % of control
T/C (dose: 20.0 mg/kg/injection, schedule: Q01DX009 (ip), vehicle: saline): 226 % of control
T/C (dose: 24.0 mg/kg/injection, schedule: Q01DX005 (ip), vehicle: saline): 196 % of control
T/C (dose: 24.0 mg/kg/injection, schedule: Q01DX005 (ip), vehicle: suspension in saline): 234 % of control
T/C (dose: 24.0 mg/kg/injection, schedule: Q01DX009 (ip), vehicle: other): 193 % of control
T/C (dose: 32.0 mg/kg/injection, schedule: Q01DX001 (oral), vehicle: saline): 94 % of control
T/C (dose: 32.0 mg/kg/injection, schedule: Q01DX001 (oral), vehicle: suspension in saline): 95 % of control
T/C (dose: 50.0 mg/kg/injection, schedule: Q01DX001 (ip), vehicle: Klucel (hydroxypropylcellulose) (HPC)): 214 % of control
T/C (dose: 64.0 mg/kg/injection, schedule: Q01DX001 (ip), vehicle: suspension in saline): 200 % of control
T/C (dose: 100.0 mg/kg/injection, schedule: Q01DX009 (oral), vehicle: Klucel (hydroxypropylcellulose) (HPC)): 94 % of control

O=C1OC(C(O)CO)C(O)=C1O (configuration not stated)
T/C (dose: 0.05 mg/kg/injection, schedule: Q01DX009 (sc), vehicle: saline): 95 % of control
